Experimental data: the supplement of paper PMC8948288
The sequences are guide strands of siRNAs; only the seed at positions 2 to 7 varies.

What was measured:
[1] = test system: GL261; assay: cell viability relative to siNT1 (ATP content); H4 human neuroglioma and GL261 mouse glioma; higher = less toxic; conditions: siRNA concentration 25 nM; 96 h; mouse
[2] = test system: H4; assay: as above; conditions: siRNA concentration 10 nM; 96 h; human
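Further: cells reverse transfected with siRNA duplexes via lipid reagent, ATP read by luminescence, triplicate wells, values scaled to mean viability with non-targeting control siNT1.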

Sequence | cell viability [1] [%] | cell viability [2] [%]
UCCUUCCACAUGUAAACCA | 19.2 | 9.23
UCCUUCGACAUGUAAACCA | 46.5 | 97.8
UCCUUCUACAUGUAAACCA | 29.1 | 56.8
UCCUUGAACAUGUAAACCA | 41.5 | 95.4
UCCUUGCACAUGUAAACCA | 10.5 | 3.55
UCCUUGGACAUGUAAACCA | 30 | 44.1
UCCUUGUACAUGUAAACCA | 12.7 | 67.7
UCCUUUAACAUGUAAACCA | 47.4 | 77.9
UCCUUUCACAUGUAAACCA | 42.2 | 43.2
UCCUUUGACAUGUAAACCA | 43 | 78
UCCUUUUACAUGUAAACCA | 33.2 | 91.2
UCGAAAAACAUGUAAACCA | 49.3 | 97.2
UCGAAACACAUGUAAACCA | 40.9 | 105
UCGAAAGACAUGUAAACCA | 50.7 | 106
UCGAAAUACAUGUAAACCA | 59.3 | 95.6
UCGAACAACAUGUAAACCA | 54.4 | 76.6
UCGAACCACAUGUAAACCA | 33.2 | 66.7
UCGAACGACAUGUAAACCA | 54.2 | 108
UCGAACUACAUGUAAACCA | 49.7 | 84.4
UCGAAGAACAUGUAAACCA | 36.4 | 97.1
UCGAAGCACAUGUAAACCA | 29.5 | 34.9
UCGAAGGACAUGUAAACCA | 59.6 | 75.7
UCGAAGUACAUGUAAACCA | 41.2 | 103

Sequence | cell viability [1] [%] | cell viability [2] [%]
UCGAAUAACAUGUAAACCA | 46.4 | 94.4
UCGAAUCACAUGUAAACCA | 62.3 | 80.8
UCGAAUGACAUGUAAACCA | 43.4 | 80.8
UCGAAUUACAUGUAAACCA | 42.3 | 103
UCGACAAACAUGUAAACCA | 52.4 | 96.3
UCGACACACAUGUAAACCA | 50.9 | 71.9
UCGACAGACAUGUAAACCA | 67.2 | 81.7
UCGACAUACAUGUAAACCA | 54.5 | 84
UCGACCAACAUGUAAACCA | 61.4 | 115
UCGACCCACAUGUAAACCA | 32.4 | 74.5
UCGACCGACAUGUAAACCA | 73.1 | 72.4
UCGACCUACAUGUAAACCA | 42.7 | 96
UCGACGAACAUGUAAACCA | 43.4 | 84.9
UCGACGCACAUGUAAACCA | 23.4 | 65.8
UCGACGGACAUGUAAACCA | 24.7 | 77.3
UCGACGUACAUGUAAACCA | 76.7 | 113
UCGACUAACAUGUAAACCA | 57.6 | 91.5
UCGACUCACAUGUAAACCA | 17 | 92.5
UCGACUGACAUGUAAACCA | 46.5 | 103
UCGACUUACAUGUAAACCA | 35.7 | 71.6
UCGAGAAACAUGUAAACCA | 44 | 99.3
UCGAGACACAUGUAAACCA | 27.3 | 77.1
UCGAGAGACAUGUAAACCA | 40.3 | 81.7

Sequence | cell viability [1] [%] | cell viability [2] [%]
UCGAGAUACAUGUAAACCA | 30.6 | 80.8
UCGAGCAACAUGUAAACCA | 54.4 | 75.5
UCGAGCCACAUGUAAACCA | 22.8 | 39.5
UCGAGCGACAUGUAAACCA | 33.3 | 99.5
UCGAGCUACAUGUAAACCA | 16.8 | 38.9
UCGAGGAACAUGUAAACCA | 32.3 | 78.2
UCGAGGCACAUGUAAACCA | 6.6 | 49.1
UCGAGGGACAUGUAAACCA | 28.5 | 65.5
UCGAGGUACAUGUAAACCA | 32.8 | 85.9
UCGAGUAACAUGUAAACCA | 68 | 109
UCGAGUCACAUGUAAACCA | 25.9 | 59.9
UCGAGUGACAUGUAAACCA | 55.8 | 72.7
UCGAGUUACAUGUAAACCA | 37.2 | 93.5
UCGAUAAACAUGUAAACCA | 102 | 92.5
UCGAUACACAUGUAAACCA | 27.8 | 94.5
UCGAUAGACAUGUAAACCA | 52.2 | 93.6
UCGAUAUACAUGUAAACCA | 50 | 90.4
UCGAUCAACAUGUAAACCA | 59.3 | 72.2
UCGAUCCACAUGUAAACCA | 19.5 | 67.3
UCGAUCGACAUGUAAACCA | 53.8 | 90.8
UCGAUCUACAUGUAAACCA | 56.2 | 85.7
UCGAUGAACAUGUAAACCA | 38.9 | 106
UCGAUGCACAUGUAAACCA | 10.8 | 31.3

Sequence | cell viability [1] [%] | cell viability [2] [%]
UCGAUGGACAUGUAAACCA | 30.7 | 72.5
UCGAUGUACAUGUAAACCA | 38 | 81.6
UCGAUUAACAUGUAAACCA | 59 | 110
UCGAUUCACAUGUAAACCA | 31.7 | 80.8
UCGAUUGACAUGUAAACCA | 51.8 | 110
UCGAUUUACAUGUAAACCA | 40.7 | 72.8
UCGCAAAACAUGUAAACCA | 38.7 | 89.8
UCGCAACACAUGUAAACCA | 31.5 | 89.8
UCGCAAGACAUGUAAACCA | 48.3 | 120
UCGCAAUACAUGUAAACCA | 39.4 | 78.4
UCGCACAACAUGUAAACCA | 15.4 | 112
UCGCACCACAUGUAAACCA | 25.8 | 46.2
UCGCACGACAUGUAAACCA | 28.2 | 74.7
UCGCACUACAUGUAAACCA | 9.71 | 71.1
UCGCAGAACAUGUAAACCA | 55.9 | 91.3
UCGCAGCACAUGUAAACCA | 14.2 | 15.9
UCGCAGGACAUGUAAACCA | 31.2 | 44.8
UCGCAGUACAUGUAAACCA | 14 | 54.5
UCGCAUAACAUGUAAACCA | 38 | 73.8
UCGCAUCACAUGUAAACCA | 23.7 | 62.2
UCGCAUGACAUGUAAACCA | 35.6 | 92.1
